Where a name gives a salt, the structure may show the parent alone. The full ranking holds about 1,900 compounds; the median of “cell viability of compound + 1 nM pemigatinib relative to pemigatinib-only (DMSO) wells” is about 0.95, and the lowest 2% start at about 0.22. This is one part of the list.
Test system: PDC-DUC18828
Assay: cell viability of compound + 1 nM pemigatinib relative to pemigatinib-only (DMSO) wells (fraction); PDC-DUC18828 is a patient-derived cholangiocarcinoma cell line; higher = less growth inhibition
Details: first compound 1 µM; pemigatinib concentration 1 nM; 72 h
Protocol: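 Selleck Bioactive library screen in the patient-derived FGFR2 fusion-positive ICC cell line PDC-DUC18828 (500 cells/well). Each compound was tested at 1 uM with 1 nM pemigatinib, in triplicate, for 72 h. Viability was read by CellTiter-Glo and normalised to plate DMSO controls. Value is the paper's averaged normalised viability.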

Row | Structure (SMILES) | cell viability
1 | CNC(=C[N+](=O)[O-])NCCSCc1ccc(CN(C)C)o1 [Ranitidine] + CCN1C(=O)N(c2c(F)c(OC)cc(OC)c2F)Cc2cnc3[nH]c(CN4CCOCC4)cc3c21 [pemigatinib] | 0.973
2 | COc1cc2c(cc1OC)-c1cc3ccc(OC)c(OC)c3c[n+]1CC2 [Palmatine chloride] + CCN1C(=O)N(c2c(F)c(OC)cc(OC)c2F)Cc2cnc3[nH]c(CN4CCOCC4)cc3c21 [pemigatinib] | 0.91
3 | COC(=O)[C@H]1[C@H]2C[C@@H]3c4[nH]c5cc(OC)ccc5c4CCN3C[C@H]2C[C@@H](OC(=O)c2cc(OC)c(OC)c(OC)c2)[C@@H]1OC [Reserpine] + CCN1C(=O)N(c2c(F)c(OC)cc(OC)c2F)Cc2cnc3[nH]c(CN4CCOCC4)cc3c21 [pemigatinib] | 1.04
4 | CSc1cccc(Nc2ncc3cc(-c4c(Cl)cccc4Cl)c(=O)n(C)c3n2)c1 + CCN1C(=O)N(c2c(F)c(OC)cc(OC)c2F)Cc2cnc3[nH]c(CN4CCOCC4)cc3c21 [pemigatinib] | 0.913
5 | O=C(O)c1ccc(Nc2ncc3c(n2)-c2ccc(Cl)cc2C(c2c(F)cccc2F)=NC3)cc1 + CCN1C(=O)N(c2c(F)c(OC)cc(OC)c2F)Cc2cnc3[nH]c(CN4CCOCC4)cc3c21 [pemigatinib] | 0.44
6 | Cc1cc(N2CCOCC2)ccc1Nc1nc(NC2CCCCC2)c2[nH]cnc2n1 + CCN1C(=O)N(c2c(F)c(OC)cc(OC)c2F)Cc2cnc3[nH]c(CN4CCOCC4)cc3c21 [pemigatinib] | 0.8
7 | C[C@H](NC(=O)Cc1cc(F)cc(F)c1)C(=O)N[C@@H]1C(=O)N(C)c2ccccc2-c2ccccc21 + CCN1C(=O)N(c2c(F)c(OC)cc(OC)c2F)Cc2cnc3[nH]c(CN4CCOCC4)cc3c21 [pemigatinib] | 0.972
8 | O=c1c(-c2ccc(O)cc2)coc2cc(O)cc(O)c12 [Genistein] + CCN1C(=O)N(c2c(F)c(OC)cc(OC)c2F)Cc2cnc3[nH]c(CN4CCOCC4)cc3c21 [pemigatinib] | 0.937
9 | OCc1ccc(-c2ccc(-c3ccc(CO)s3)o2)s1 + CCN1C(=O)N(c2c(F)c(OC)cc(OC)c2F)Cc2cnc3[nH]c(CN4CCOCC4)cc3c21 [pemigatinib] | 0.883
10 | C[C@@H]1CC(=O)NN=C1c1ccc(NN=C(C#N)C#N)cc1 [Levosimendan] + CCN1C(=O)N(c2c(F)c(OC)cc(OC)c2F)Cc2cnc3[nH]c(CN4CCOCC4)cc3c21 [pemigatinib] | 0.928
11 | CN(C)CCCNC(=O)c1ccc(-c2cc(O)c3ncccc3c2)cc1 + CCN1C(=O)N(c2c(F)c(OC)cc(OC)c2F)Cc2cnc3[nH]c(CN4CCOCC4)cc3c21 [pemigatinib] | 1.04
12 | O=C(O)Cc1ccccc1Nc1c(Cl)cccc1Cl [Diclofenac Potassium] + CCN1C(=O)N(c2c(F)c(OC)cc(OC)c2F)Cc2cnc3[nH]c(CN4CCOCC4)cc3c21 [pemigatinib] | 0.921
13 | O=C(O)Cc1ccccc1Nc1c(Cl)cccc1Cl [Diclofenac Diethylamine] + CCN1C(=O)N(c2c(F)c(OC)cc(OC)c2F)Cc2cnc3[nH]c(CN4CCOCC4)cc3c21 [pemigatinib] | 0.926
14 | O=C(O)Cc1ccccc1Nc1c(Cl)cccc1Cl [Diclofenac Sodium] + CCN1C(=O)N(c2c(F)c(OC)cc(OC)c2F)Cc2cnc3[nH]c(CN4CCOCC4)cc3c21 [pemigatinib] | 0.981
15 | Cc1c(NC(=O)c2ccc(C(C)(C)C)cc2)cccc1-c1cn(C)c(=O)c(Nc2ccc(C(=O)N3CCOCC3)cc2)n1 + CCN1C(=O)N(c2c(F)c(OC)cc(OC)c2F)Cc2cnc3[nH]c(CN4CCOCC4)cc3c21 [pemigatinib] | 0.918
16 | C[C@@H](c1ncncc1F)[C@](O)(Cn1cncn1)c1ccc(F)cc1F [Voriconazole] + CCN1C(=O)N(c2c(F)c(OC)cc(OC)c2F)Cc2cnc3[nH]c(CN4CCOCC4)cc3c21 [pemigatinib] | 1.02
17 | Cc1cncc(CN2CCC(=C3c4ccc(Cl)cc4CCc4cccnc43)CC2)c1 [Rupatadine Fumarate] + CCN1C(=O)N(c2c(F)c(OC)cc(OC)c2F)Cc2cnc3[nH]c(CN4CCOCC4)cc3c21 [pemigatinib] | 0.953
18 | CS(=O)(=O)c1ccc([C@@H](O)[C@@H](CO)NC(=O)C(Cl)Cl)cc1 [Thiamphenicol] + CCN1C(=O)N(c2c(F)c(OC)cc(OC)c2F)Cc2cnc3[nH]c(CN4CCOCC4)cc3c21 [pemigatinib] | 0.98
19 | O=c1[nH]cc(F)c(=O)[nH]1 [Fluorouracil (5-Fluoracil, 5-FU)] + CCN1C(=O)N(c2c(F)c(OC)cc(OC)c2F)Cc2cnc3[nH]c(CN4CCOCC4)cc3c21 [pemigatinib] | 0.888
20 | CNC(=O)c1ccccc1Oc1nc(Nc2cc(OC)c(OC)c(OC)c2)ncc1Br + CCN1C(=O)N(c2c(F)c(OC)cc(OC)c2F)Cc2cnc3[nH]c(CN4CCOCC4)cc3c21 [pemigatinib] | 0.906

Row | Structure (SMILES) | cell viability
21 | O=c1ncn2nc(Sc3ccc(F)cc3F)ccc2c1-c1c(Cl)cccc1Cl + CCN1C(=O)N(c2c(F)c(OC)cc(OC)c2F)Cc2cnc3[nH]c(CN4CCOCC4)cc3c21 [pemigatinib] | 0.979
22 | C[C@]12C=CC(=O)C=C1CC[C@@H]1[C@@H]2[C@@H](O)C[C@@]2(C)[C@H]1CC[C@]2(O)C(=O)CO [Prednisolone] + CCN1C(=O)N(c2c(F)c(OC)cc(OC)c2F)Cc2cnc3[nH]c(CN4CCOCC4)cc3c21 [pemigatinib] | 0.931
23 | N=c1ccn2c(n1)O[C@H]1[C@H](O)[C@@H](CO)O[C@H]12 [Cyclocytidine HCl] + CCN1C(=O)N(c2c(F)c(OC)cc(OC)c2F)Cc2cnc3[nH]c(CN4CCOCC4)cc3c21 [pemigatinib] | 0.614
24 | CNC(=O)c1ccc2cc([C@@]3(O)CCn4cncc43)ccc2c1 [TAK-700 (Orteronel)] + CCN1C(=O)N(c2c(F)c(OC)cc(OC)c2F)Cc2cnc3[nH]c(CN4CCOCC4)cc3c21 [pemigatinib] | 1.07
25 | CC(=O)Oc1cc(C(F)(F)F)ccc1C(=O)O [Triflusal] + CCN1C(=O)N(c2c(F)c(OC)cc(OC)c2F)Cc2cnc3[nH]c(CN4CCOCC4)cc3c21 [pemigatinib] | 0.902
26 | CC(C)CCN1c2nc(Nc3cc(F)c(O)c(F)c3)ncc2N(C)C(=O)C1C (centres undefined) + CCN1C(=O)N(c2c(F)c(OC)cc(OC)c2F)Cc2cnc3[nH]c(CN4CCOCC4)cc3c21 [pemigatinib] | 0.714
27 | O=C1NC(=O)/C(=C/c2ccc(-c3ccc(F)cc3O)o2)S1 + CCN1C(=O)N(c2c(F)c(OC)cc(OC)c2F)Cc2cnc3[nH]c(CN4CCOCC4)cc3c21 [pemigatinib] | 0.979
28 | Cc1cnc(Nc2ccc(N3CCN(C)CC3)cc2)nc1Nc1cccc(S(=O)(=O)NC(C)(C)C)c1 + CCN1C(=O)N(c2c(F)c(OC)cc(OC)c2F)Cc2cnc3[nH]c(CN4CCOCC4)cc3c21 [pemigatinib] | 0.78
29 | OC[C@@H](O)[C@@H](O)CO [Erythritol] + CCN1C(=O)N(c2c(F)c(OC)cc(OC)c2F)Cc2cnc3[nH]c(CN4CCOCC4)cc3c21 [pemigatinib] | 0.953
30 | CCn1c(=O)c(-c2ccc(-c3cncs3)cc2Cl)cc2cnc(Nc3ccc(N4CCN(C)CC4)cc3)nc21 + CCN1C(=O)N(c2c(F)c(OC)cc(OC)c2F)Cc2cnc3[nH]c(CN4CCOCC4)cc3c21 [pemigatinib] | 1.01
31 | Nc1cccc(S(=O)(=O)N2CCCN(S(=O)(=O)c3ccc4c(c3)OCCO4)CC2)c1 + CCN1C(=O)N(c2c(F)c(OC)cc(OC)c2F)Cc2cnc3[nH]c(CN4CCOCC4)cc3c21 [pemigatinib] | 1.01
32 | CC[C@H](C)n1cc(C)c2c(C(=O)NCc3c(C)cc(C)[nH]c3=O)cc(-c3ccc(N4CCNCC4)nc3)cc21 + CCN1C(=O)N(c2c(F)c(OC)cc(OC)c2F)Cc2cnc3[nH]c(CN4CCOCC4)cc3c21 [pemigatinib] | 0.917
33 | Cc1cccc(-c2[nH]c(C(C)(C)C)nc2-c2ccc3nccnc3c2)n1 + CCN1C(=O)N(c2c(F)c(OC)cc(OC)c2F)Cc2cnc3[nH]c(CN4CCOCC4)cc3c21 [pemigatinib] | 1.02
34 | CC[C@@]1(O)C(=O)OCc2c1cc1n(c2=O)Cc2cc3cc(O)ccc3nc2-1 [(S)-10-Hydroxycamptothecin] + CCN1C(=O)N(c2c(F)c(OC)cc(OC)c2F)Cc2cnc3[nH]c(CN4CCOCC4)cc3c21 [pemigatinib] | 0.1
35 | CN1CCN(CCCNc2ncc(Cl)c(-c3cc4c(C(=O)NC5CC5)cccc4s3)n2)CC1 + CCN1C(=O)N(c2c(F)c(OC)cc(OC)c2F)Cc2cnc3[nH]c(CN4CCOCC4)cc3c21 [pemigatinib] | 0.897
36 | NC(=O)c1noc([C@H](CCCC2CCCCC2)CC(=O)NO)n1 + CCN1C(=O)N(c2c(F)c(OC)cc(OC)c2F)Cc2cnc3[nH]c(CN4CCOCC4)cc3c21 [pemigatinib] | 1.04
37 | NC1(c2ccc(-c3nc4ccn5c(=O)[nH]nc5c4cc3-c3ccccc3)cc2)CCC1 + CCN1C(=O)N(c2c(F)c(OC)cc(OC)c2F)Cc2cnc3[nH]c(CN4CCOCC4)cc3c21 [pemigatinib] | 0.776
38 | CCOc1cn(-c2ccc(F)cc2C)nc1C(=O)Nc1ccc(Oc2ccnc3cc(OC)c(OC)cc23)c(F)c1 + CCN1C(=O)N(c2c(F)c(OC)cc(OC)c2F)Cc2cnc3[nH]c(CN4CCOCC4)cc3c21 [pemigatinib] | 0.84
39 | C#C[C@]1(O)CC[C@H]2[C@@H]3CCC4=CC(=O)CC[C@@H]4[C@H]3CC[C@@]21C [Norethindrone] + CCN1C(=O)N(c2c(F)c(OC)cc(OC)c2F)Cc2cnc3[nH]c(CN4CCOCC4)cc3c21 [pemigatinib] | 1.02

Source: the supplement of paper PMC9588766
